# Measurements taken from the supplement of paper PMC8728848.
# Some of the results follow.
# B1: Tap1 (Sordaria macrospora), Q50IV4 (protein)
# chain: MSHHHHHHHHYTLHLRLINDTSDTLTLVEQTSWWGKNTIWSQVRSTGVHVLSMAASGSSGMLRFQTSKGDFFAVAVGVHNYKRWCDVLVDTADEAPLTKLHPKYYDDKDAKYQALWAQASEFEAKSKSGKTVRIKFYQADGNVLRATVEYL
# Assays:
# Assay in all cases: glycan array binding signal (z-score within array); higher = stronger binding
# Details in all cases: glycan notation: IUPAC condensed, linker removed
# [1] = biological target: Neu5Ac(a2-3)Gal(b1-4)[Fuc(a1-3)]GlcNAc(b1-3)Gal(b1-4)GlcNAc
# Method in brief: (§1)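 Glycan array binding is given as a within-array Z-score, which can be read as non-binding when negative. The arrays, 3228 of them, came from the Consortium for Functional Glycomics database and were retained only where the protein sequence was available. Z-scores were averaged across arrays of the same protein sequence at different concentrations or buffers and across linkers.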
# [2] = biological target: Neu5Ac(a2-3)Gal(b1-4)[Fuc(a1-3)]GlcNAc(b1-3)Gal(b1-4)[Fuc(a1-3)]GlcNAc(b1-3)Gal(b1-4)[Fuc(a1-3)]GlcNAc
# Method in brief: as §1
# [3] = biological target: Neu5Ac(a2-3)Gal(b1-4)[Fuc(a1-3)]GlcNAc(b1-3)GalNAc
# Method in brief: as §1
# [4] = biological target: Neu5Ac(a2-3)Gal(b1-4)[Fuc(a1-3)]GlcNAc(b1-6)[Gal(b1-3)]GalNAc
# Method in brief: as §1
# [5] = biological target: Neu5Ac(a2-3)Gal(b1-4)[Fuc(a1-3)]GlcNAc(b1-6)[Neu5Ac(a2-3)Gal(b1-3)]GalNAc
# Method in brief: as §1
# [6] = biological target: Neu5Ac(a2-3)Gal(b1-4)[Fuc(a1-3)]GlcNAc6S
# Method in brief: as §1
# [7] = biological target: Neu5Ac(a2-3)Gal6S(b1-4)GlcNAc
# Method in brief: as §1
# [8] = biological target: Neu5Ac(a2-3)Gal6S(b1-4)[Fuc(a1-3)]GlcNAc
# Method in brief: as §1
# Neu5Ac(a2-3)GalNAc = biological target: Neu5Ac(a2-3)GalNAc
# Method in brief: as §1
# [9] = biological target: Neu5Ac(a2-3)GalNAc(b1-4)GlcNAc
# Method in brief: as §1
# [10] = biological target: Neu5Ac(a2-3)[GalNAc(b1-4)]Gal(b1-4)Glc
# Method in brief: as §1
# [11] = biological target: Neu5Ac(a2-3)[GalNAc(b1-4)]Gal(b1-4)GlcNAc
# Method in brief: as §1
# [12] = biological target: Neu5Ac(a2-3)[GalNAc(b1-4)]Gal(b1-4)GlcNAc(b1-3)GalNAc
# Method in brief: as §1
# [13] = biological target: Neu5Ac(a2-3)[Neu5Ac(a2-6)]GalNAc
# Method in brief: as §1
# Neu5Ac(a2-6)Gal = biological target: Neu5Ac(a2-6)Gal
# Method in brief: as §1
# [14] = biological target: Neu5Ac(a2-6)Gal(b1-3)GlcNAc(b1-3)[Gal(b1-4)GlcNAc(b1-6)]Gal(b1-4)Glc
# Method in brief: as §1
# Neu5Ac(a2-6)Gal(b1-4)Glc = biological target: Neu5Ac(a2-6)Gal(b1-4)Glc
# Method in brief: as §1
# [15] = biological target: Neu5Ac(a2-6)Gal(b1-4)GlcNAc
# Method in brief: as §1
# [16] = biological target: Neu5Ac(a2-6)Gal(b1-4)GlcNAc(b1-2)Man(a1-3)Man(b1-4)GlcNAc(b1-4)GlcNAc
# Method in brief: as §1
# [17] = biological target: Neu5Ac(a2-6)Gal(b1-4)GlcNAc(b1-2)Man(a1-3)[Gal(b1-4)GlcNAc(b1-2)Man(a1-6)]Man(b1-4)GlcNAc(b1-4)GlcNAc
# Method in brief: as §1
# [18] = biological target: Neu5Ac(a2-6)Gal(b1-4)GlcNAc(b1-2)Man(a1-3)[GlcNAc(b1-2)Man(a1-6)]Man(b1-4)GlcNAc(b1-4)GlcNAc
# Method in brief: as §1
# [19] = biological target: Neu5Ac(a2-6)Gal(b1-4)GlcNAc(b1-2)Man(a1-3)[GlcNAc(b1-2)Man(b1-4)GlcNAc(b1-2)Man(a1-6)]Man(b1-4)GlcNAc(b1-4)GlcNAc
# Method in brief: as §1
# [20] = biological target: Neu5Ac(a2-6)Gal(b1-4)GlcNAc(b1-2)Man(a1-3)[Man(a1-6)]Man(b1-4)GlcNAc(b1-4)GlcNAc
# Method in brief: as §1
# [21] = biological target: Neu5Ac(a2-6)Gal(b1-4)GlcNAc(b1-2)Man(a1-3)[Neu5Ac(a2-6)Gal(b1-4)GlcNAc(b1-2)Man(a1-6)]Man(b1-4)GlcNAc(b1-4)GlcNAc
# Method in brief: as §1
# [22] = biological target: Neu5Ac(a2-6)Gal(b1-4)GlcNAc(b1-2)Man(a1-6)Man(b1-4)GlcNAc(b1-4)GlcNAc
# Method in brief: as §1
# [23] = biological target: Neu5Ac(a2-6)Gal(b1-4)GlcNAc(b1-2)Man(a1-6)[Gal(b1-4)GlcNAc(b1-2)Man(a1-3)]Man(b1-4)GlcNAc(b1-4)GlcNAc
# Method in brief: as §1
# [24] = biological target: Neu5Ac(a2-6)Gal(b1-4)GlcNAc(b1-2)Man(a1-6)[GlcNAc(b1-2)Man(a1-3)]Man(b1-4)GlcNAc(b1-4)GlcNAc
# Method in brief: as §1
# [25] = biological target: Neu5Ac(a2-6)Gal(b1-4)GlcNAc(b1-2)Man(a1-6)[Man(a1-3)]Man(b1-4)GlcNAc(b1-4)GlcNAc
# Method in brief: as §1
# [26] = biological target: Neu5Ac(a2-6)Gal(b1-4)GlcNAc(b1-3)Gal(b1-3)GlcNAc
# Method in brief: as §1
# [27] = biological target: Neu5Ac(a2-6)Gal(b1-4)GlcNAc(b1-3)Gal(b1-4)GlcNAc
# Method in brief: as §1
# [28] = biological target: Neu5Ac(a2-6)Gal(b1-4)GlcNAc(b1-3)Gal(b1-4)GlcNAc(b1-3)Gal(b1-4)GlcNAc
# Method in brief: as §1
# [29] = biological target: Neu5Ac(a2-6)Gal(b1-4)GlcNAc(b1-3)Gal(b1-4)[Fuc(a1-3)]GlcNAc(b1-3)Gal(b1-4)[Fuc(a1-3)]GlcNAc
# Method in brief: as §1
# [30] = biological target: Neu5Ac(a2-6)Gal(b1-4)GlcNAc(b1-3)GalNAc
# Method in brief: as §1
# [31] = biological target: Neu5Ac(a2-6)Gal(b1-4)GlcNAc6S
# Method in brief: as §1
# Neu5Ac(a2-6)GalNAc = biological target: Neu5Ac(a2-6)GalNAc
# Method in brief: as §1
# [32] = biological target: Neu5Ac(a2-6)GalNAc(b1-4)GlcNAc
# Method in brief: as §1
# [33] = biological target: Neu5Ac(a2-6)GlcNAc(b1-4)GlcNAc
# Method in brief: as §1
# [34] = biological target: Neu5Ac(a2-6)GlcNAc(b1-4)GlcNAc(b1-4)GlcNAc
# Method in brief: as §1
# Neu5Ac(a2-8)Neu5Ac = biological target: Neu5Ac(a2-8)Neu5Ac
# Method in brief: as §1
# [35] = biological target: Neu5Ac(a2-8)Neu5Ac(a2-3)Gal(b1-4)Glc
# Method in brief: as §1
# [36] = biological target: Neu5Ac(a2-8)Neu5Ac(a2-3)[Gal(b1-3)GalNAc(b1-4)]Gal(b1-4)Glc
# Method in brief: as §1
# [37] = biological target: Neu5Ac(a2-8)Neu5Ac(a2-3)[GalNAc(b1-4)]Gal(b1-4)Glc
# Method in brief: as §1
# [38] = biological target: Neu5Ac(a2-8)Neu5Ac(a2-8)Neu5Ac
# Method in brief: as §1
# [39] = biological target: Neu5Ac(a2-8)Neu5Ac(a2-8)Neu5Ac(a2-3)Gal(b1-4)Glc
# Method in brief: as §1
# [40] = biological target: Neu5Ac(a2-8)Neu5Ac(a2-8)Neu5Ac(a2-3)[GalNAc(b1-4)]Gal(b1-4)Glc
# Method in brief: as §1
# [41] = biological target: Neu5Ac(a2-8)Neu5Ac(a2-8)Neu5Ac(a2-8)Neu5Ac(a2-3)[GalNAc(b1-4)]Gal(b1-4)Glc
# Method in brief: as §1
# [42] = biological target: Neu5Ac(b2-6)Gal(b1-4)GlcNAc
# Method in brief: as §1
# Neu5Ac(b2-6)GalNAc = biological target: Neu5Ac(b2-6)GalNAc
# Method in brief: as §1
# [43] = biological target: Neu5Ac9Ac(a2-3)Gal(b1-3)GlcNAc
# Method in brief: as §1
# [44] = biological target: Neu5Ac9Ac(a2-3)Gal(b1-4)GlcNAc
# Method in brief: as §1
# [45] = biological target: Neu5Ac9Ac(a2-6)Gal(b1-4)GlcNAc
# Method in brief: as §1
# [46] = biological target: Neu5Gc(a2-3)Gal(b1-3)GlcNAc
# Method in brief: as §1
# [47] = biological target: Neu5Gc(a2-3)Gal(b1-3)[Fuc(a1-4)]GlcNAc
# Method in brief: as §1
# Neu5Gc(a2-3)Gal(b1-4)Glc = biological target: Neu5Gc(a2-3)Gal(b1-4)Glc
# Method in brief: as §1
# [48] = biological target: Neu5Gc(a2-3)Gal(b1-4)GlcNAc
# Method in brief: as §1
# [49] = biological target: Neu5Gc(a2-3)Gal(b1-4)[Fuc(a1-3)]GlcNAc
# Method in brief: as §1
# [50] = biological target: Neu5Gc(a2-6)Gal(b1-4)GlcNAc
# Method in brief: as §1
# Neu5Gc(a2-6)GalNAc = biological target: Neu5Gc(a2-6)GalNAc
# Method in brief: as §1
# [51] = biological target: Neu5Gc(b2-6)Gal(b1-4)GlcNAc
# Method in brief: as §1
binder,measurement,setting,value
B1,glycan array binding signal (z-score),[1],-0.144
same,glycan array binding signal (z-score),[2],-0.202
same,glycan array binding signal (z-score),[3],0.059
same,glycan array binding signal (z-score),[4],-0.008
same,glycan array binding signal (z-score),[5],0.019
same,glycan array binding signal (z-score),[6],-0.246
same,glycan array binding signal (z-score),[7],-0.242
same,glycan array binding signal (z-score),[8],-0.237
same,glycan array binding signal (z-score),Neu5Ac(a2-3)GalNAc,-0.236
same,glycan array binding signal (z-score),[9],-0.247
same,glycan array binding signal (z-score),[10],-0.247
same,glycan array binding signal (z-score),[11],-0.24
same,glycan array binding signal (z-score),[12],-0.233
same,glycan array binding signal (z-score),[13],-0.233
same,glycan array binding signal (z-score),Neu5Ac(a2-6)Gal,-0.186
same,glycan array binding signal (z-score),[14],-0.21
same,glycan array binding signal (z-score),Neu5Ac(a2-6)Gal(b1-4)Glc,-0.23
same,glycan array binding signal (z-score),[15],-0.228
same,glycan array binding signal (z-score),[16],-0.211
same,glycan array binding signal (z-score),[17],-0.225
same,glycan array binding signal (z-score),[18],-0.209
same,glycan array binding signal (z-score),[19],-0.238
same,glycan array binding signal (z-score),[20],-0.18
same,glycan array binding signal (z-score),[21],-0.224
same,glycan array binding signal (z-score),[22],-0.238
same,glycan array binding signal (z-score),[23],-0.226
same,glycan array binding signal (z-score),[24],-0.234
same,glycan array binding signal (z-score),[25],-0.18
same,glycan array binding signal (z-score),[26],-0.233
same,glycan array binding signal (z-score),[27],-0.241
same,glycan array binding signal (z-score),[28],-0.241
same,glycan array binding signal (z-score),[29],-0.176
same,glycan array binding signal (z-score),[30],1.14
same,glycan array binding signal (z-score),[31],-0.094
same,glycan array binding signal (z-score),Neu5Ac(a2-6)GalNAc,-0.236
same,glycan array binding signal (z-score),[32],-0.241
same,glycan array binding signal (z-score),[33],-0.213
same,glycan array binding signal (z-score),[34],-0.241
same,glycan array binding signal (z-score),Neu5Ac(a2-8)Neu5Ac,-0.221
same,glycan array binding signal (z-score),[35],-0.242
same,glycan array binding signal (z-score),[36],-0.213
same,glycan array binding signal (z-score),[37],-0.24
same,glycan array binding signal (z-score),[38],-0.241
same,glycan array binding signal (z-score),[39],-0.246
same,glycan array binding signal (z-score),[40],-0.24
same,glycan array binding signal (z-score),[41],-0.222
same,glycan array binding signal (z-score),[42],-0.249
same,glycan array binding signal (z-score),Neu5Ac(b2-6)GalNAc,-0.232
same,glycan array binding signal (z-score),[43],-0.241
same,glycan array binding signal (z-score),[44],-0.212
same,glycan array binding signal (z-score),[45],-0.243
same,glycan array binding signal (z-score),[46],-0.23
same,glycan array binding signal (z-score),[47],-0.24
same,glycan array binding signal (z-score),Neu5Gc(a2-3)Gal(b1-4)Glc,-0.225
same,glycan array binding signal (z-score),[48],-0.238
same,glycan array binding signal (z-score),[49],-0.233
same,glycan array binding signal (z-score),[50],-0.231
same,glycan array binding signal (z-score),Neu5Gc(a2-6)GalNAc,-0.236
same,glycan array binding signal (z-score),[51],-0.233
